120 sequences from the supplement of paper PMC10126150 can be followed below.

Values marked as one replicate rest on one cluster of the flow cell; about a third of the high ones do not repeat.
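Also: ATP exposure 15 min at 22 °C before imaging.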

This data set deals with ATP. The data set is described as follows: switch fluorescence ratio, 500 uM ATP over buffer (Cy3 cluster intensity, sum of 5 cycles each) (fold (ratio)); higher = stronger signal-on switching upon ATP binding; sequences stand for … in TCGTCGGCAGCGTCAGATGTGTATAAGAGACAGTTTTTTTTTTTTTTTTTTTTTTTTT…TC. Conditions: aptamer strand: ATP DNA aptamer (quencher-CACCTGGGGGAGTATTGCGGAGGAAGG + anchor), 100 nM annealed; ATP concentration: 500 uM; one replicate. Summed up: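 Clusters carrying Cy3-labelled switching strands on a modified Illumina MiSeq flow-cell were annealed to 100 nM quencher-labelled ATP aptamer and imaged in selection buffer. They were imaged again after 15 min with 500 uM ATP at 22 °C, over five buffer/ATP cycles with NaOH stripping and re-annealing in between. For each cluster, the fluorescence ratio is the summed Cy3 intensity of the target cycles divided by that of the buffer cycles, averaged per switch-domain sequence. Clusters outside 100-1000 RFU were left out.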
With GCTCAAGAAA, the switch fluorescence ratio was determined as 1.05. The figure for CCTAAGGTTA is 1.06; for TTAAGTGTTG it is 1. In the case of ACCGCTTGCT, the switch fluorescence ratio was determined as 1.19.

Turning to CATGAGAGGG, the switch fluorescence ratio was 1.02. Consider GGCTGCGATT, for which the switch fluorescence ratio came out at 1.01. In the case of CAGACATTCT, the switch fluorescence ratio was found to be 1.02. The value for TCCATACAA was 1.02; that for CGTGTTGAGC was 1.01. The value for GCTGCACCGG was 1; that for TCGGGCGCGG was 1.01. For CTTGGCCCAA, the switch fluorescence ratio worked out at 1.02. Consider AGGAAGCAAC, for which the switch fluorescence ratio was found to be 1.52. For ACGTGGTCAA, the switch fluorescence ratio was found to be 0.97. ATTTTAAGCT: the switch fluorescence ratio was determined as 0.995.

CTATAATCGG: the switch fluorescence ratio came to 1.02. The value for ACGGATCCTG was 0.985. The figure for CCACGCATGG is 3.95; for ATTTAGAGGC it is 1.02; for TGGCTCGGGA it is 1.04. In the case of TCGCGGGGAC, the switch fluorescence ratio came out at 1.27. The value for GCTGCCGGGT was 1.01; that for TATCGGGTTG was 1; that for GCCGACTAAC was 1.07. The value for GTGTACGTAT was 1.03; that for ACGAATCAAC was 1.11. Regarding GCGATCCGGC, the switch fluorescence ratio amounted to 1.07.

AACTAGTTAT: the switch fluorescence ratio was 1.01. For the sequence TCAGTGAAGT, the switch fluorescence ratio is 1.05. The figure for TGTCGTGGTG is 1.01; for ATCGTTTC it is 0.999. Regarding AGCAGTTATT, the switch fluorescence ratio turned out to be 0.954. The value for GGGTGCTAAC was 1.01; that for TTTTTCTACT was 1.01. The value for CATAACCTCG was 0.983; that for TATCGCGCGA was 0.979. The figure for GCAGCGCCGG is 1.01; for TGCTACTCTG it is 1.06; for CAGAAGTGGA it is 0.948. On to GGGCGCGTGA, for which the switch fluorescence ratio was found to be 1.23. The value for ATTATGATCA was 0.971. Regarding TCTCGGAGGT, the switch fluorescence ratio was found to be 1.06. The figure for AGAATTTGAA is 0.971; for GCGCCAGGCT it is 1.03; for TGGTGCGTCG it is 1.08. Take GCTCCGCGCA: the switch fluorescence ratio is 5.11.

As to ATCGGTGTAC, the switch fluorescence ratio was determined as 1.04. As for GAGAGGCTTA, the switch fluorescence ratio worked out at 0.958. The figure for CTAACGTA is 1.07; for CTAAACAGAT it is 1.01; for CTCCAAAGCT it is 1.41. The figure for TCAAGCGCTG is 1.03. In the case of AAGGTGGGAT, the switch fluorescence ratio was 1.02.

As to TCCTTGAACT, the switch fluorescence ratio came to 1.13.

Regarding GAAATAGAGT, the switch fluorescence ratio is 1.46. The value for ATACACAGA was 1.06. Turning to TCTTTAATA, the switch fluorescence ratio is 0.983. The value for CCCCAGCGCC was 1.82; that for AATACGCCCC was 1.28. Consider TTTAACTTAC, for which the switch fluorescence ratio stood at 1.61. The value for CCAATGGGCG was 1.03; that for TACAATCAGG was 1.12. The value for ATTATATTAT was 1.01; that for GGAATAAGC was 1.03. The figure for CAGGTAATA is 1.04; for AAAAGGGTGT it is 1.02. CAGTTGTGTA: the switch fluorescence ratio turned out to be 1.04. The figure for TTTCCTCTAA is 1.04. Take GCTACAACGG: the switch fluorescence ratio was determined as 1.07. In the case of CTTGACTCCC, the switch fluorescence ratio came out at 1.55. The value for CCCGAAATGG was 5.54; that for TGTAGTTCCT was 1.03. The value for TAAGAGAAGA was 0.981; that for CGATCCTAGT was 1.03; that for TGGCTATTGA was 0.97. Take CAACGAATTA: the switch fluorescence ratio turned out to be 1.05. The value for ATGCTATCCA was 0.981. The value for CTTGTGATCC was 1.01.

In the case of GGAAGGCTTG, the switch fluorescence ratio amounted to 1.01. Consider GGGAGTCTGA, for which the switch fluorescence ratio was 1.01. The figure for AACTATGTCT is 0.96; for AGGCATAAGC it is 0.964.

GTGCTACATG: the switch fluorescence ratio was 1. The figure for ACTCGACGCG is 1.01; for TCTCTCATC it is 1.05.

Consider CTCAGCGAT, for which the switch fluorescence ratio turned out to be 3.21. As to TATATTTTCT, the switch fluorescence ratio was determined as 1.02. Regarding TCGCAGAAGT, the switch fluorescence ratio was 0.951. The figure for GTGAGTGCTT is 1; for TCGCACTTCG it is 1.05; for ACGAAGTTCT it is 0.973.

TAATGCCAA: the switch fluorescence ratio turned out to be 0.978. As to TGATACGTTT, the switch fluorescence ratio is 1.05. For TTCGCGTAGG, the switch fluorescence ratio was 0.998. On to CGTCTAAAGG, for which the switch fluorescence ratio was found to be 1.01. The value for ATGGTGTAAT was 1; that for ATTCGCTTGC was 1.1; that for TTCCAAGGCC was 0.96. The value for GTACGGACGT was 1.08; that for CTACGCGTAA was 1.62; that for ACCCCTATAT was 1.13. The figure for TTTGCACCTA is 1.05. On to CACCCAGCA, for which the switch fluorescence ratio turned out to be 1.32. For the sequence CCTAGTTTGC, the switch fluorescence ratio was found to be 1.05. The value for GAATATTTCC was 1.06; that for GAACTTGTCC was 1; that for CTACTTTGTT was 0.98. On to AGAGCGAGTG, for which the switch fluorescence ratio was determined as 1.03. Turning to AATAACACTG, the switch fluorescence ratio came out at 0.991. As for CTTACGCGAT, the switch fluorescence ratio worked out at 1.21.

In the case of ATTCGCTCCT, the switch fluorescence ratio stood at 1.01.

On to AAATGCATG, for which the switch fluorescence ratio turned out to be 0.991. The figure for TTCCGGTATA is 1.11; for TCACGGTCAT it is 1.06; for ACTCTCAATA it is 3.28. The figure for CCCGGGCGGT is 1.01; for CTCCTGGCGG it is 1.21.

For the sequence AAGTTGATGA, the switch fluorescence ratio turned out to be 1. GACTTCTAAC: the switch fluorescence ratio came to 1.03. The value for ATGCCTGT was 1.01.
